Measured values published in PubChem BioAssay (NCI).
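Grown in 96-well plates, cells were treated for 48 hours with each compound at five concentrations. Insufficient inhibition: endpoint recorded as highest concentration tested. The concentration for 50% growth inhibition is given as GI50. TGI is the concentration that stops growth completely.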

What follows are molecules tested on NCI-H322M lung (assay: DTP human tumour cell line panel, 48 h).

| Structure (SMILES) | GI50 [µM] | TGI [µM] |
| --- | --- | --- |
| CN1C(=O)/C(=C/c2ccc3ncsc3c2)NC1=NC12CC3CC(CC(O)(C3)C1)C2 | 2.68 | > 100 |
| Nc1cc(-c2c[nH]c3ccc(Br)cc23)nc2cc(-c3c[nH]c4ccccc34)nn12 | 3.63 | 15.3 |
| Cc1ccc(Cl)cc1NC(=O)Nc1nc2ccc([N+](=O)[O-])cc2s1 | 3.07 | 11.1 |
| COc1ccccc1-n1cc(C#N)c(N)c1C(=O)c1ccc(Cl)cc1Cl | 7.65 | > 100 |
| C#C[C@]1(O)CC[C@H]2[C@@H]3CC=C4c5sc(Nc6cc(C)cc(C)n6)nc5CC[C@]4(C)[C@H]3CC[C@@]21C | > 100 | > 100 |
| COc1ccc(/C=C/c2n(Cc3ccc4ccccc4c3)c3ccccc3[n+]2Cc2ccc3ccccc3c2)cc1 | 1.35 | 2.64 |
